The values that follow come from ChEMBL document CHEMBL4888484, “Replenishing the malaria drug discovery pipeline: Screening and hit evaluation of the MMV Hit Generation Library 1 (HGL1) against asexual blood stage Plasmodium falciparum ,using a nano luciferase reporter read-out” (2022).

About 540 (0.36%) of roughly 150,000 compounds showed an effect of 50% or more. The list shows a part of the results.

For the assay, the system named is Plasmodium falciparum. Nature of the assay: Primary screen in NF54 nanoGlo assay, in single point, at 2uM, 72h; a lower Z score goes with more inhibition. The assay is classed as functional, Erythrocyte. The settings on record: timepoint 72 hour.
`C[C@@H](c1ccon1)N(C)c1ccc(-c2nc(-c3ccccc3F)no2)cn1`: the “% Inhibition” value is given as -8% and the Z score worked out at 0.98.

As to `CC(C)CCc1noc(CN2C(=O)c3ccccc3CS2(=O)=O)n1`, the “% Inhibition” value stood at 0% and the Z score was 0.

For `Cc1ccc(C(=O)NC2(c3ncccn3)CCOCC2)o1`, the “% Inhibition” value is on record as -5% and the Z score is 0.91.

`Cc1cc(Cl)cc(C(=O)O[C@@H](C)c2nnc(C)o2)c1`: the “% Inhibition” value is 12% and the Z score is listed as -1.6.

For `CC1c2[nH]c3ccccc3c2C[C@H]2C(=O)N(c3ccccc3C(=O)NCc3ccccc3)C(=O)N12` (stereo partly drawn), the “% Inhibition” value is reported as -1% and the Z score is on record as 0.22.

Take `COc1nccnc1N1CCC[C@H](Cn2ccnc2)C1`: the “% Inhibition” value is 1% and the Z score is -0.26.

Regarding `O=C(c1c(F)cccc1F)N1CC[C@H](c2ccc3c(c2)CCO3)C1`, the “% Inhibition” value is recorded as -18% and the Z score was 2.14.

In the case of `O=C(Nc1ccc(-c2cc3ccccc3[nH]2)cc1)[C@@H]1CCCN1C1CCOCC1`, the “% Inhibition” value is -11% and the Z score amounted to 1.34.

Turning to `Cc1nnsc1CNC(=O)N1CCN(Cc2ccc3c(c2)OCO3)CC1`, the “% Inhibition” value is recorded as -3% and the Z score worked out at 0.5.

In the case of `Cc1ncsc1C(=O)N1c2ccccc2C[C@@H]1C`, the “% Inhibition” value was -3% and the Z score stood at 0.31.

Regarding `CCc1ccc(-c2cc3c(=O)n(CC(=O)N4CC(C)CC(C)C4)ncn3n2)cc1` (stereo not drawn), the “% Inhibition” value came to 32% and the Z score was -1.05.

Take `CCc1nsc(N2CCO[C@@H](CN3CCOCC3)C2)n1`: the “% Inhibition” value is -21% and the Z score came to 2.35.

For `CCc1cnccc1C(=O)N[C@H](c1nccs1)C(F)(F)F`, the “% Inhibition” value is listed as 2% and the Z score was -0.35.

Turning to `Cc1cc(NC(=O)c2ccccc2C(=O)c2ccc(Cl)cc2)ccc1N1CCCC1=O`, the “% Inhibition” value is -10% and the Z score stood at 1.56.

Regarding `CC(=O)/C(=N\Nc1ccc(Cl)cc1)N(/C(=N/Nc1ccc(Cl)cc1)C(C)=O)C(C)(C)C`, the “% Inhibition” value was -14% and the Z score amounted to 1.51.

In the case of `Cc1nc2c(C(=O)NCCC3=CCCCCC3)ccnc2[nH]1`, the “% Inhibition” value was determined as 7% and the Z score is given as -1.37.

In the case of `Cc1nc(N(CCO)Cc2nccn2C)c2nc(C)oc2n1`, the “% Inhibition” value was -16% and the Z score was 2.14.

Regarding `CC(=O)/C(=N/Nc1ccc(Cl)cc1)N1CCCc2ccccc21`, the “% Inhibition” value is -4% and the Z score was 0.55.

For the compound `CN1CCN(C(=O)CCc2cc3n(n2)CCN(Cc2ccncc2)C3)CC1`, the “% Inhibition” value is -3% and the Z score came to 0.52.

As to `Cc1cccc(C2CC2C(=O)N2CCCC(n3cccn3)C2)c1` (stereo not drawn), the “% Inhibition” value is reported as -2% and the Z score amounted to 0.24.

Consider `COc1ccc(CCNC(=O)Cc2csc(COc3ccc(C)c(C)c3)n2)cc1`, for which the “% Inhibition” value is -17% and the Z score was 3.29.

Regarding `Cc1ncc(NC(=O)NCC2CCCCCC2)cn1`, the “% Inhibition” value is -6% and the Z score is reported as 0.89.

`CC(C)c1cc(C(=O)N2CC[C@H]2c2cccc(Br)c2)nn1C`: the “% Inhibition” value is given as -9% and the Z score is listed as 1.48.

For the compound `Cc1c(C(=O)N2C[C@@H]3CCC[C@H](C2)C(=O)N3)ccn1C`, the “% Inhibition” value is on record as -14% and the Z score was determined as 2.63.

Consider `C[C@H]1CN(Cc2cc(-c3ccccc3)on2)Cc2c[nH]nc21`, for which the “% Inhibition” value is recorded as -5% and the Z score is recorded as 0.55.

In the case of `CCOC(=O)[C@@H]1CCCCN1C(=O)c1cc(CCc2ccccc2)no1`, the “% Inhibition” value was -8% and the Z score came out at 1.04.

With `CN(Cc1cccnc1)C(=O)c1csc(NC(=O)c2ccc(Cl)cc2Cl)n1`, the “% Inhibition” value was -12% and the Z score is 1.69.

`COc1ccccc1C(=O)N1Cc2c(C(=O)NC3CC3)nn(C)c2C1`: the “% Inhibition” value was -1% and the Z score is 0.16.

With `O=C(Oc1ccc2c(Cc3ccccc3)noc2c1)c1ccccc1F`, the “% Inhibition” value is -6% and the Z score turned out to be 0.63.

As to `C[C@@H](C(=O)Nc1ccc2c(c1)CCCCC2)n1cnc2c(N)ncnc21`, the “% Inhibition” value is 9% and the Z score is listed as -1.17.

Take `O=C(O)CC[C@@H]1CN(Cc2ccc3ccccc3c2)CC[C@@H]1N1CCN(c2ccccc2F)CC1`: the “% Inhibition” value amounted to 11% and the Z score is -1.53.

On to `CCN(C(=O)[C@H]1CCOC1)c1ccc(C(F)(F)F)cc1`, for which the “% Inhibition” value turned out to be 36% and the Z score is recorded as -5.22.

As to `CCCOc1cc(OC)ccc1C(=O)Nc1cc(C(=O)NCC2CC2)ccc1C`, the “% Inhibition” value is reported as 0% and the Z score is reported as 0.02.

Consider `NC(=O)[C@@H]1CN(c2cc(C(=O)NC3CC3)c3ccccc3n2)CCO1`, for which the “% Inhibition” value was -12% and the Z score is 1.6.

In the case of `CN(CC1(C)CCOCC1)C(=O)CCc1c[nH]c2ccccc12`, the “% Inhibition” value came to 5% and the Z score is reported as -0.79.

For the compound `CCC1(CC)CN(C(=O)CC2(O)CCCC2)CC[S@@+]1[O-]`, the “% Inhibition” value is -9% and the Z score is recorded as 1.47.

`CCc1ccnc(C(=O)NCCc2nc3c(s2)COCC3)c1`: the “% Inhibition” value is recorded as -1% and the Z score is 0.19.

Consider `CC(C(=O)N1Cc2cncnc2[C@@H](C)C1)=C1CCCC1`, for which the “% Inhibition” value was -7% and the Z score is listed as 1.09.

As for `O=C1C[C@H](c2ccc(C(F)(F)F)cc2)c2cnn(Cc3ccc4c(c3)OCO4)c2N1`, the “% Inhibition” value is listed as -12% and the Z score was 1.51.

Regarding `CCOc1ccc([C@H]2CC(=O)Nc3c(S(=O)(=O)c4cccc(C)c4)csc32)cc1`, the “% Inhibition” value is on record as -14% and the Z score is recorded as 1.43.

As to `c1ccc2c(c1)N(CCn1cncn1)CCN2CC1CC1`, the “% Inhibition” value is recorded as -4% and the Z score was found to be 0.64.

As to `CC(CCCO)NC(CNC(=O)OC(C)(C)C)Cc1ccccc1` (stereo not drawn), the “% Inhibition” value stood at 5% and the Z score is -1.01.

In the case of `N#CC1(CS(=O)(=O)N(CC2CC2)c2cccnc2)CC1`, the “% Inhibition” value is recorded as -11% and the Z score is on record as 1.06.

Consider `OCCCNc1ccc(Cl)cc1OC(F)F`, for which the “% Inhibition” value is -4% and the Z score is recorded as 0.53.

With `OC[C@H]1CCCN1CCCc1ccccc1`, the “% Inhibition” value was -12% and the Z score worked out at 2.22.

As for `CCOc1cccc(CCNC(=O)N2CCCC3CN(C)CCC32)c1` (stereo not drawn), the “% Inhibition” value came to 0% and the Z score turned out to be 0.03.

Regarding `CC(C)(C)c1ccc(CCCCN)cc1`, the “% Inhibition” value is reported as -13% and the Z score worked out at 1.77.

Turning to `Cc1cccc(-c2noc(N3CCOCC3)c2CN(Cc2ccc(F)cc2)C(=O)C2CCCC2)c1`, the “% Inhibition” value turned out to be 11% and the Z score is on record as -1.39.

Turning to `CCO[C@H]1CCN(c2nnnn2CC2(C)CCOC3(CCC3)C2)C1` (stereo partly drawn), the “% Inhibition” value was 19% and the Z score was -2.48.

Turning to `COCCN1C[C@@H](Cc2cccc(C(F)(F)F)c2)CC1=O`, the “% Inhibition” value was -21% and the Z score is 1.91.

As for `CCOC(=O)C1CCCN(C(=O)CN2Cc3ccccc3OC(c3ccccc3OC)C2)C1` (stereo not drawn), the “% Inhibition” value is given as -7% and the Z score was 0.96.

For `COc1nn(C)cc1CNC(=O)Nc1ncc(C2CCCCC2)s1`, the “% Inhibition” value is on record as -7% and the Z score was 1.15.

With `Cc1nc(C)c(Cn2ccnc2-c2ccncc2)s1`, the “% Inhibition” value is -4% and the Z score was 0.53.

Consider `O=C1CCN(S(=O)(=O)c2ccccc2)CCC[C@H](C(=O)N2CCN(Cc3ccccc3F)CC2)CCN1`, for which the “% Inhibition” value is recorded as -13% and the Z score came to 1.69.
